# Measured values taken from PubChem BioAssay AID1508624 (National Center for Advancing Translational Sciences (NCATS), 2021).
# In all, about 48,000 compounds went through this assay and about 120 (0.25%) were called active. About 4% were inconclusive and are not listed. Calls come from the whole dose curve; as a rule, active = well fitted activation curve with a large enough effect; inconclusive = small, poorly fitted or top-dose-only effect, or another doubt; inactive = no such curve, though single readings can be large or run the other way. The list shows a part of the results.
# Assay: Primary qHTS for Identification of Small Molecule Activators of Huntingtin-Antisense Promoter Activity; note: nearly all actives have a fitted effect of over 55% in size
# Details: HEK293 HTT-AS promoter firefly luciferase reporter, 24 h; series mostly up to 57.5 µM; activity change, positive = activation: at the top concentration
# Method in brief: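 HEK293 Fluc reporter, 2,500 cells/well, 24 h pre-culture; cpds up to 57.5 uM final, 24 h 37 degrees C; Dual-Glo, 10 min RT; normalized vehicle = 0%, zero RLU = -100%.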
row,Structure (SMILES),"activity change, positive = activation"
1,CCN(c1ccccc1)c1ncnc2c1cnn2-c1ccc(C)cc1C,inactive: 17.3%
2,Cc1ccc(NC(=O)Cn2cc3c(n2)CCCCC3)cc1,inactive: -11.4%
3,Cc1ccc(S(=O)(=O)Nc2cccc(-c3cn4cccc(C)c4n3)c2)cc1,inactive: -20.2%
4,O=C(Nc1ccc(Cl)cc1Cl)c1cc(S(=O)(=O)N2CCc3ccccc32)ccc1F,inactive: -11%
5,Cc1ccc(C)c(Nc2nc3c(S(=O)(=O)c4ccc(C(C)C)cc4)nnn3c3ccsc23)c1,inactive: -44.7%
6,Cc1cccc(N2CCN(C(=O)c3c(C)oc4ncnc(N5CCCCC5)c34)CC2)c1C,inactive: -24.4%
7,CCOC(=O)c1noc2nc(C)n(CC(=O)Nc3ccccc3F)c(=O)c12,inactive: 6.18%
8,Fc1cc(Br)ccc1Nc1c2c(nc3nc(-c4cccs4)nn13)CCCC2,inactive: -26.4%
9,CNC(=O)c1cc(Nc2nnc(-c3ccc(O)cc3)c3ccccc23)ccc1OC,inactive: -22.3%
10,O=C1CCCc2cc(S(=O)(=O)NCC3CCC(C(=O)Nc4ccccc4F)CC3)ccc2N1 (centres undefined),inactive: -25.8%
11,CC(NC(=O)c1ccccc1NC(=O)c1nsc2ccccc12)c1ccccc1 (centres undefined),inactive: 11.3%
12,COc1ccc(OC)c(CCNc2ncnc3onc(-c4ccc(F)cc4)c23)c1,inactive: -40.9%
13,COC(=O)c1ccc(OC)c(Cn2c(=O)n(Cc3ccccc3)c(=O)c3c2c2cc(OC)ccc2n3C)c1,inactive: -4.56%
14,CC(=O)c1ccc(NC(=O)C2=CC(c3ccc4c(c3)OCO4)=NS(=O)(=O)N2C)cc1,inactive: -27.4%
15,CCCCOc1ccc(C(=O)N2CCN(CCc3ccccn3)CC2)cc1,inactive: -16.2%
16,COc1ccc(-c2cc(C)nc3c(-c4ccc(OC)c(OC)c4)c(C)nn23)cc1,inactive: -7.02%
17,COc1ccc(N2CCN(C(=O)c3cc4ccc5cccnc5c4[nH]3)CC2)cc1,inactive: -0.912%
18,CSc1ccc(-c2nc3ccc(C)cn3c2Nc2ccccc2C)cc1,inactive: 0.731%
19,CS(=O)(=O)N(CC(=O)NCCc1ccccc1)c1cc(C(F)(F)F)ccc1Cl,inactive: -13.1%
20,Cc1cccc(-c2nnn3c2nc(NCCc2ccc(S(N)(=O)=O)cc2)c2cc(Cl)ccc23)c1,inactive: -5.65%

row,Structure (SMILES),"activity change, positive = activation"
1,CCCCCn1c(=O)[nH]c2cc(C(=O)N3CCN(c4cccc(C)c4)C(C)C3)ccc2c1=O (centres undefined),inactive: -56.6%
2,Cc1cccc(Oc2nc3c(c(=O)n(C)c(=O)n3C)n2C)c1,inactive: -5.36%
3,O=C(NCC12CC3CC(CC(C3)C1)C2)c1cc2nc(-c3ccccc3)cc(C(F)(F)F)n2n1,inactive: -8.32%
4,CCn1cc(C(=O)NCc2ccccc2OC)c(=O)c2cc(S(=O)(=O)N3CCCCC3)ccc21,inactive: -13.8%
5,CCOC(=O)[C@@H](N)Cc1ccc(-c2cc(O[C@H](c3ccc(Cl)cc3-n3ccc(C)n3)C(F)(F)F)nc(N)n2)cc1,inactive: -18.6%
6,COc1ccccc1CN1COc2ccc3c(oc(=O)c4ccccc43)c2C1,inactive: -11.4%
7,CCn1c(=O)cc(SCC(=O)NCCc2ccc(Cl)cc2)c2ccccc21,inactive: -16.6%
8,CCOC(=O)C1CCC(CN(Cc2ccc(Cl)cc2)S(=O)(=O)c2ccc(F)c(C(=O)Nc3cccc(F)c3)c2)CC1 (centres undefined),inactive: -6.58%
9,COc1ccccc1Nc1cc(C(=O)NC2CCCC2)c2ccccc2n1,inactive: -25.5%
10,COc1ccc(/C=C/C(=O)Nc2sc3c(c2C(N)=O)CCCC3)cc1,inactive: 2.6%
11,COc1ccc(S(=O)(=O)N2CCCCC2)cc1C(=O)Nc1cccc(C(F)(F)F)c1,inactive: -13.4%
12,CCOC(=O)c1cnc(NCc2ccccc2OC)c2ccccc12,inactive: -12.4%
13,COc1cccc2sc(=NC(=O)c3ccc(S(=O)(=O)N4CCCCC4)cc3)n(C)c12,inactive: -6.06%
14,COc1ccc(-c2ccc(=O)n(CC(=O)Nc3ccc(C)cc3C)n2)cc1,inactive: -8.61%
15,COc1ccc(-c2noc(CCC(=O)NCc3ccc(C)cc3)n2)cc1,inactive: 11.1%
16,Cc1ccc(-c2ccc(CCC(=O)O)n2-c2cccc(O)c2)cc1,inactive: 2.15%
17,O=c1n(Cc2cccc(C(F)(F)F)c2)c2ccccc2c2nc(-c3ccccc3)nn12,inactive: -25.1%
18,Cc1ccc(CNC(=O)CCCCCn2c(=O)c3sccc3n(CC(=O)N(C)c3ccccc3)c2=O)cc1,inactive: 0.644%
19,CCOC(=O)c1cccc(NC(=O)Cn2ncc3c4ccccc4n(Cc4ccccc4)c3c2=O)c1,inactive: -14%
20,Cc1ccc(C(=O)Nc2ccc3oc(-c4ccc(C(C)(C)C)cc4)nc3c2)cc1,inactive: -14.8%

row,Structure (SMILES),"activity change, positive = activation"
1,CCc1ccc2oc(C(=O)Nc3cccc(C(F)(F)F)c3)cc(=O)c2c1,"inactive: 10.8% [at 11.5 µM, percent change from vehicle, -100% = no light]"
2,CSc1nn(Cc2ccc(Cl)cc2)c(N(C(C)=O)C(C)=O)c1S(=O)(=O)c1ccccc1,inactive: -35.6%
3,Cc1ccc(NS(=O)(=O)c2ccc3[nH]c(=O)ccc3c2)cc1N(C)C,inactive: -26.8%
4,Cc1cccc(Cn2c(=O)n(CCc3ccccc3)c(=O)c3c(C)c(C)sc32)c1,inactive: 11.9%
5,Cc1ccc(NC(=O)c2cc(C)nc3c2c(C)nn3-c2cccc(Cl)c2C)c(C)c1,inactive: -13.9%
6,C#CCOc1ccc(-c2nnc(Nc3cccc(C)c3)c3ccccc23)cc1,inactive: -44.4%
7,Cn1cc(S(=O)(=O)c2ccccc2)c(=O)c2cc(F)c(N3CCN(c4ccccc4)CC3)cc21,inactive: -18.5%
8,Cc1cccc(-n2c(-c3ccccc3)cn3c4c(=O)[nH]c(=O)n(C)c4nc23)c1,inactive: -0.452%
9,Cc1ccc(-c2cc(C(F)(F)F)n3nc(C(=O)Nc4ccc(Cl)c(C(F)(F)F)c4)cc3n2)cc1,inactive: 2.86%
10,Cc1cccc(C)c1OCC(=O)Nc1nc(-c2ccc(Br)cc2)ns1,inactive: -0.178%
11,Cc1cc(C)c(Cn2c3ccccc3c3cnn(CC(=O)N4CCCCCC4)c(=O)c32)c(C)c1,inactive: -14.4%
12,O=C(Cn1c(=O)n(-c2cccc(Cl)c2)c(=O)c2sc3ccccc3c21)N1CCCC1,inactive: -17.1%
13,CCOc1ccc(C(=O)Nc2c(C(=O)Nc3ccccc3F)oc3ccccc23)cc1OCC,inactive: -15.1%
14,CC(=O)c1ccc(NC(=O)c2c3c(nc4ccccc24)C(=O)N(C2CCCCC2)C3)cc1,inactive: -6.6%
15,O=S1(=O)c2ccccc2N(Cc2ccccc2)c2ccccc21,inactive: -8.61%
16,CCN(CC)CCCNC(=O)C1CCN(S(=O)(=O)CC)CC1,inactive: -2.51%
17,COC(=O)c1cc(C)nc2c1c(=O)nc(SCc1ccccc1F)n2C1CC1,inactive: -6.09%
18,CCn1c(=O)c2cc(C(=O)NCCc3cc(OC)ccc3OC)sc2c2ccccc21,inactive: -12.2%
19,CCCCN(CC)CCNC(=O)c1cc2c(=O)oc3ccc(C)cc3c2s1,inactive: -17%
